Among all 390,000 compounds or so, about 2,200 (0.56%) were called active. The shares of active, inactive and inconclusive entries below differ from those in the screen. The call rests on the fitted dose curve; in most records, active means well fitted inhibition curve with a large enough effect; inconclusive means small, poorly fitted or top-dose-only effect; inactive means no such curve, though single readings can be large or run the other way. A potency beside an inconclusive call is a rough fit, not a confirmed value.
Each compound was assayed against Chromobox protein homolog 1 (Homo sapiens) (UniProt P83916) (assay: HTS for Inhibitors of HP1-beta Chromodomain Interactions with Methylated Histone Tails). Conditions: AlphaScreen HP1-beta / biotin-H3K9me3 peptide binding; series mostly up to 114 µM; activity change, negative = inhibition: at the top concentration.
Summary of the method: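 HP1-beta protein (50 nM final) preincubated 30 min at room temperature with biotinylated H3(1-18)K9me3 peptide (50 nM) in PBS pH 7.4, 0.01% Tween-20, then compound added for 30 min. AlphaScreen streptavidin donor/nickel chelate acceptor beads (10 ug/mL final), 30 min dark, luminescence read.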
Further: nearly all actives have a fitted effect of over 70% in size.
Potency means the concentration at half of the fitted maximal effect; tags describe the fitted curve by direction and shape.

Chain of UniProt P83916 (P83916 whole entry, looked up): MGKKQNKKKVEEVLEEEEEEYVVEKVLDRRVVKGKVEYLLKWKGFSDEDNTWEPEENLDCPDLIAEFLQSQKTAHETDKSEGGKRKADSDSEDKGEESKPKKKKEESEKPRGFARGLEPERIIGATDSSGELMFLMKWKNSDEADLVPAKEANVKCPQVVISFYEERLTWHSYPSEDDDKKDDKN

| SMILES | Potency | activity change, negative = inhibition |
| --- | --- | --- |
| Cc1ccc2nc3c(nc2c1C)C(O)=C3O | inconclusive: 70.8 µM [inhibitor, partial curve] | – |
| N#CC(c1ccccc1)N(CCCCl)C(=O)c1ccccc1 (stereo not drawn) | – | inactive: 62.6% |
| COc1ccc(O)c(/C=N/Nc2nc3ccccc3[nH]2)c1 | – | inactive: 48% |
| CC1Cc2ccccc2N1S(=O)(=O)c1cccc(C(=O)NCCCn2ccnc2)c1 (stereo not drawn) | inconclusive: 25.1 µM [inhibitor, single point] | – |
| COc1ccc(CNC(=S)N/N=C(/C)c2ccccc2)cc1 | inconclusive: 50.1 µM [inhibitor, partial curve] | – |
| Oc1ccc(C(=S)N2CCN(c3cccc(Cl)c3)CC2)cc1 | inconclusive: 50.1 µM [inhibitor, partial curve, poor fit] | – |
| O=C(NC1=C(Nc2ccc(F)cc2)C(=O)c2ccccc2C1=O)c1ccc(Cl)cc1 | inconclusive: 25.1 µM [inhibitor, partial curve, poor fit] | – |
| C/C(CC(=O)Nc1ccc(F)cc1)=N\NC(=O)c1ccccn1 | – | inactive: 48.8% |
| Cn1cc(CN2CCN(c3ccccc3)CC2)c2ccccc21 | inconclusive: 17.8 µM [inhibitor, partial curve, poor fit] | – |
| COc1ccc(N2CCN(c3ccc(-c4nc(-c5cccc(C)c5)no4)cc3[N+](=O)[O-])CC2)cc1 | – | inactive: 50.1% |
| COc1cccc(OC)c1OCCN(C)C | inconclusive: 17.8 µM [inhibitor, partial curve, poor fit] | – |
| COc1cccc(C(Nc2ccccn2)c2oc(CO)cc(=O)c2O)c1 (stereo not drawn) | inconclusive: 8.91 µM [inhibitor, partial curve, poor fit] | – |
| Cc1[nH]c2ccccc2c1Cc1n[nH]c(=S)o1 | – | inactive: 10.3% |
| CCOc1ccc(S(=O)(=O)c2cn(Cc3ccc(OC)cc3)c3ccc(F)cc3c2=O)cc1 | – | inactive: 43.2% |
| Cn1c(=O)[nH]c(=O)c2c1nc1n2CCN1c1ccccc1 | – | inactive: 12.2% |
| CCOC(=O)C1=C(C)N=C2c3ccccc3C(=O)C2C1c1ccc(Cl)cc1 (stereo not drawn) | inconclusive: 25.1 µM [inhibitor, full curve] | – |
| Oc1c(N=NC(=S)Nc2ccccc2F)c2ccccc2n1Cc1ccccc1 | inconclusive: 3.16 µM [inhibitor, full curve, poor fit] | – |
| CCOc1ccc(NC(=O)CN2C(C(=O)OC)=C(c3ccccc3)c3cc(Cl)ccc3S2(=O)=O)cc1 | – | inactive: 17.2% |
| CCS(=O)(=O)N1CCC(C(=O)Oc2ccccc2)CC1 | – | inactive: 27.7% |
| O=C(Oc1csc(=S)n1C(=O)c1ccccc1)c1ccccc1 | active: 50.1 µM | – |
| CCOC(=O)c1cnc(-n2[nH]c(C)cc2=O)[nH]c1=O | active: 50.1 µM | – |
| Clc1ccc(-c2csc(Nc3ccccc3)[n+]2Cc2ccco2)c(Cl)c1 | inconclusive: 12.6 µM [inhibitor, single point] | – |
| COc1ccccc1NC(=O)C1CCN(S(=O)(=O)c2cn(C)cn2)CC1 | – | inactive: -20.2% |
| O=S(=O)(O)c1cc(O)c2ccc(Nc3ccccc3)cc2c1 | inconclusive: 10 µM [inhibitor, partial curve, poor fit] | – |

| SMILES | Potency | activity change, negative = inhibition |
| --- | --- | --- |
| COc1ccc(NC(=O)c2c(NCc3cccc(F)c3)sc3c2CCCC3)c(OC)c1 | inconclusive: 39.8 µM [inhibitor, partial curve, poor fit] | – |
| NC(=S)NNc1cccc2cccnc12 | – | inactive: -15.9% |
| COc1ccc(-c2cc3ccccc3n2CC(O)CN2CCCCC2)cc1 (stereo not drawn) | inconclusive: 56.2 µM [inhibitor, single point] | – |
| O=C(Cn1cnc2c(cnn2-c2ccc(F)cc2)c1=O)N1CCCc2ccccc21 | – | inactive: 31.9% |
| COC(=O)c1cc(COC(=O)c2nc3nccc(C)n3n2)oc1C | – | inactive: 26.6% |
| CN(C)c1ccc(/C=N/n2c(COc3ccccc3)n[nH]c2=S)cc1 | inconclusive: 22.4 µM [inhibitor, full curve] | – |
| c1cc(SSc2ccncc2)ccn1 | inconclusive: 3.55 µM [inhibitor, full curve, poor fit] | – |
| Cc1ccc(-c2csc3n[nH]c(=S)n23)cc1 | inconclusive: 17.8 µM [inhibitor, full curve, poor fit] | – |
| O=C(NCCc1csc2nc(-c3ccc(F)cc3)nn12)c1ccco1 | – | inactive: 21% [at 57 µM] |
| Cc1ccc(-c2cc(C(=O)N3CCN(c4ccccc4)CC3)c3ccccc3n2)cc1C | – | inactive: 47.2% |
| COC(=O)c1cc(NC(=O)CCc2c(C)nc3cc(-c4ccccc4)nn3c2C)cc(C(=O)OC)c1 | – | inactive: 12.4% |
| CC1CCN(C(=O)c2ccc(S(=O)(=O)Cc3ccccc3F)c([N+](=O)[O-])c2)CC1 | – | inactive: -12.4% |
| CCCC(=O)OCCNc1cc(Sc2nc3ccccc3[nH]2)c2nonc2c1[N+](=O)[O-] | inconclusive: 44.7 µM [inhibitor, partial curve, poor fit] | – |
| Oc1ccc(NCc2ccc(OCc3ccccc3Cl)cc2)cc1 | inconclusive: 56.2 µM [inhibitor, single point] | – |
| O=C(CSc1nc2ccccc2n1CC(=O)N1CCCCC1)N1CCCCC1 | – | inactive: 18.9% |
| O=C(COc1ccc(Cl)cc1)Nc1nc(-c2ccncc2)cs1 | inconclusive: 11.2 µM [inhibitor, partial curve, poor fit] | – |
| CC(C)(C)c1cc(C(F)(F)F)n2ncc(-c3ccccc3)c2n1 | inconclusive: 70.8 µM [inhibitor, partial curve, poor fit] | – |
| COc1cc(/C=C2\SC(=S)N(Nc3ncc(C(F)(F)F)cc3Cl)C2=O)cc(OC)c1OC | inconclusive: 10 µM [inhibitor, partial curve] | – |
| Cc1ccc(NCCCCO)cc1C | inconclusive: 89.1 µM [inhibitor, single point] | – |
| CSc1ccc(N/N=C(/C#N)S(=O)(=O)C(C)(C)C)cc1 | inconclusive: 25.1 µM [inhibitor, full curve] | – |
| CCCCCCCCCC(=O)N/N=C/c1ccc(C)s1 | – | inactive: 48.3% |
| Cc1ccccc1NC(=O)CN(c1ccc(Cl)cc1Cl)S(=O)(=O)c1ccccc1 | – | inactive: 35.5% |
| O=C(NNc1c2ccccc2nc2ccccc12)c1ccc(O)cc1 | inconclusive: 17.8 µM [inhibitor, full curve] | – |
| Cc1ccccc1NC(=S)N/N=C1\CC(C)(C)Oc2ccc(O)cc21 | inconclusive: 22.4 µM [inhibitor, full curve] | – |
